Data as given in PubChem BioAssay AID504706 (National Center for Advancing Translational Sciences (NCATS), 2011).
The whole screen tested about 320,000 compounds, of which about 200 (0.062%) were called active. This list was built around the results that the source calls inconclusive (neither active nor inactive); the mix of calls is not that of the screen. Calls come from the whole dose curve; as a rule, active = well fitted activation curve with a large enough effect; inconclusive = small, poorly fitted or top-dose-only effect; inactive = no such curve, though single readings can be large or run the other way. No potency is given beside an inconclusive call; the fits are too rough.

Assay: qHTS assay for re-activators of p53 using a Luc reporter; note: nearly all actives have a fitted effect of over 45% in size; for activity change, positive = activation: % of control where 0% means no effect
Settings: H1299 p53-A138V BP100-luciferase reporter, luminescence, 24 h; series mostly up to 92.2 µM; activity change, positive = activation: at the top concentration
In short: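 H1299 (p53-null), stable ts p53-A138V + BP100-Luc; 1000 cells/well, Opti-MEM/10% FBS; cpd 4 pt, 1:5; 24 h, 37 deg C, 5% CO2; detection reagent 10 min RT; luminescence.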
Potency is the fitted concentration of half-maximal effect; tags give direction and shape of the fitted curve.

SMILES | activity change, positive = activation | Potency
CC1=C(C(=O)OC(C)C)C(c2cccnc2)C2=C(CC(C)(C)CC2=O)N1 (centres undefined) | inactive: -13.2% | –
O=C(Cc1ccc(Cl)cc1)Nc1ccc(-c2cc3ccccc3oc2=O)c(Cl)c1 | – | inconclusive [activator, full curve, poor fit]
Oc1ccc(C[C@H]2CNCCN2CC2CCCCC2)cc1 | – | inconclusive [activator, single point]
CCOC(=O)c1ccc(-n2ncc(C(=O)OCC)c2N)cc1 | inactive: 18.3% | –
O=C1CCCN1CCC1CCN(C(=O)Nc2ccccc2)CC1 | – | inconclusive [activator, partial curve, poor fit]
Brc1cccc2sc(N3CCCC3)nc12 | – | inconclusive [activator, partial curve, poor fit]
COc1ccccc1N1CCN(c2ccc3ccccc3n2)CC1 | – | inconclusive [activator, full curve, poor fit]
CNCc1cc(Cl)cc(OC)c1OC(C)C | inactive: -7.97% | –
Cc1occc1C(=O)NCc1cccs1 | inactive: 3.56% | –
CC(C)c1ccc(/C=C/C(=O)Nc2nncs2)cc1 | – | inconclusive [activator, partial curve, poor fit]
Oc1cccc(Nc2ncnc3c2oc2ccccc23)c1 | – | inconclusive [activator, full curve, poor fit]
CCN(CC)C(=O)CSc1ncnc2c(-c3cccs3)nsc12 | – | inconclusive [activator, partial curve, poor fit]
COc1cccc(C(C)NC(=O)c2c(F)cccc2Cl)c1 (centres undefined) | – | inconclusive [activator, single point]
Cc1nn(-c2ccc(N3CCCCC3)nn2)c(C)c1CCC(=O)Nc1ccc(F)c(F)c1 | – | inconclusive [activator, partial curve, poor fit]
COc1ccc(NC(=O)CSc2ccccn2)cc1 | – | inconclusive [activator, partial curve, poor fit]
CC(=O)c1sc(N/N=C\c2ccc(Br)cc2)nc1C | – | inconclusive [activator, partial curve, poor fit]
Cc1ccc(NC(=O)C2C3CCCCC32)cc1[N+](=O)[O-] (centres undefined) | – | inconclusive [activator, single point]
CCS(=O)(=O)c1nc(S(=O)(=O)c2ccc(Cl)cc2)c(N2CCOCC2)s1 | inactive: 8.76% | –
O=C(NNC(=O)c1ccccc1Cl)c1ccc2c(c1)OCCO2 | – | inconclusive [activator, full curve, poor fit]
CNc1sc(C(=O)c2cccs2)c(N)c1-c1nc2ccccc2s1 | – | inconclusive [activator, partial curve, poor fit]
Cc1oc2c(CN3CCOCC3)c(O)ccc2c(=O)c1-c1ccc(Cl)cc1 | inactive: 0.405% | –
O=C(Nc1cccc(-c2cccc(Cl)c2)c1)C1CCN(Cc2ccc(CO)o2)CC1 | – | inconclusive [activator, full curve, poor fit]

SMILES | activity change, positive = activation | Potency
CC(C)CN1C(=O)c2ccc(C(=O)Nc3ccccc3C(=O)O)cc2C1=O | – | inconclusive [activator, full curve, poor fit]
CN(C)/C=C1/Nc2ccccc2C1=O | – | inconclusive [activator, single point]
CCCc1cc(C(=O)NCC(C)C)no1 | – | inconclusive [activator, partial curve, poor fit]
Clc1ccc(SCc2cn3ccsc3n2)cc1 | – | inconclusive [activator, partial curve, poor fit]
O=S(=O)(c1cccs1)N1CCN(CC(O)COc2cccc(Br)c2)CC1 (centres undefined) | inactive: -2.46% | –
O=C(N/N=C/c1ccc(-c2ccccc2Cl)o1)c1ccccc1 | – | inconclusive [activator, partial curve]
Cc1cccc(NC(=O)c2cnc3n(c2=O)CCS3)c1 | – | inconclusive [activator, partial curve, poor fit]
Cc1ccccc1C(=O)Nc1cccc(-c2cn3ccccc3n2)c1 | inactive: 17.4% | –
O=C(COC(=O)/C=C/c1ccc(OC(F)F)cc1)Nc1cccc(S(=O)(=O)N2CCCC2)c1 | inactive: -1.48% | –
CCOC(=O)C1(Cc2cccc(Cl)c2)CCCN(C(=O)c2ccco2)C1 (centres undefined) | – | inconclusive [activator, single point]
Cc1ccsc1-c1nc(CSCC(=O)NCCN2CCCC2)c(C)o1 | – | inconclusive [activator, single point]
CC(C)NC(=O)C(Sc1ccccc1)c1ccccc1 (centres undefined) | inactive: -4.46% | –
c1csc(-c2nc(NCCCN3CCOCC3)c3ccccc3n2)c1 | inactive: -7.64% | –
Cc1cc([N+](=O)[O-])nn1Cc1ccc(C(=O)N/N=C/c2ccc(O)cc2O)cc1 | – | inconclusive [activator, partial curve, poor fit]
Cc1ccc2c(c1)c(C)c(C)n2CC(O)Cn1nnc2ccccc21 (centres undefined) | – | inconclusive [activator, partial curve, poor fit]
CC(C)(C)c1nnc(NC(=O)c2ccc3c(c2)OCO3)s1 | – | inconclusive [activator, full curve, poor fit]
CC(C)(C)n1nnnc1CN(Cc1ccc(F)cc1)Cc1ccco1 | – | inconclusive [activator, single point]
COc1ccccc1NC(=O)C(=O)Nc1ccccn1 | inactive: 7.13% | –
COc1cccc(C(=O)OCC(=O)NCc2ccc3c(c2)OCO3)c1OC | inactive: 2.65% | –
CCn1c(SCC(=O)Nc2ccc(C(C)=O)cc2)nc2ccccc21 | – | inconclusive [activator, partial curve, poor fit]
CCN(C(=O)c1ccco1)c1nnc(-c2ccc(OC)cc2)s1 | – | inconclusive [activator, full curve, poor fit]
C/C(N)=C(/C#N)C(=O)CSc1n[nH]c(-c2ccccc2Br)n1 | – | inconclusive [activator, partial curve, poor fit]
